{"sequences": {"note": "Protein sequences, listed by entry. Tags and fused reporters are not part of them.", "UniProt Q9UJU2": "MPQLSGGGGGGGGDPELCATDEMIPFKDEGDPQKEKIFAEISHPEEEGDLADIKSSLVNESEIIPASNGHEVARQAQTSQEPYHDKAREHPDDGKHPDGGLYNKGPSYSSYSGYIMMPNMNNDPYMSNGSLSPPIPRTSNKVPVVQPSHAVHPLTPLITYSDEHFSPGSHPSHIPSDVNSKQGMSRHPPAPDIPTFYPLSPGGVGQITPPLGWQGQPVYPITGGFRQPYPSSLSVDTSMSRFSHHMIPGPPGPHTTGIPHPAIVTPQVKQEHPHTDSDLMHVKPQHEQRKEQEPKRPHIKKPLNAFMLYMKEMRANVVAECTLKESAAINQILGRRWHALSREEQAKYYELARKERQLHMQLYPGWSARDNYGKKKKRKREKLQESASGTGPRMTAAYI", "UniProt Q9NQB0": "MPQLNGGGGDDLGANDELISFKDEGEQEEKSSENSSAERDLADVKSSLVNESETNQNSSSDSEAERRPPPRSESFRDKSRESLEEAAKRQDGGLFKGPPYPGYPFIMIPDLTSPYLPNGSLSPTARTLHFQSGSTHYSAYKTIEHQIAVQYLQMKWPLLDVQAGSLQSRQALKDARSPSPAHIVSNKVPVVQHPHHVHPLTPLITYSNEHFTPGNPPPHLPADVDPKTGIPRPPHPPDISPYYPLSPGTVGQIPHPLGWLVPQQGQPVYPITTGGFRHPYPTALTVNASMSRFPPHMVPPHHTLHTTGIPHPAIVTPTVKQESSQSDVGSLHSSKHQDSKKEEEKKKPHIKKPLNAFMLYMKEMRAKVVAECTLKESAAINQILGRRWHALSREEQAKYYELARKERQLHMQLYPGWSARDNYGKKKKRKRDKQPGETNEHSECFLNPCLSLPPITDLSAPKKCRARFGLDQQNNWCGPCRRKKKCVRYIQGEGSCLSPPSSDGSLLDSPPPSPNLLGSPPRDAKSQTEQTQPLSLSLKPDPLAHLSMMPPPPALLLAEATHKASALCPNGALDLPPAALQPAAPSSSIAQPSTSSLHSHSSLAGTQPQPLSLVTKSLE", "UniProt P35222": "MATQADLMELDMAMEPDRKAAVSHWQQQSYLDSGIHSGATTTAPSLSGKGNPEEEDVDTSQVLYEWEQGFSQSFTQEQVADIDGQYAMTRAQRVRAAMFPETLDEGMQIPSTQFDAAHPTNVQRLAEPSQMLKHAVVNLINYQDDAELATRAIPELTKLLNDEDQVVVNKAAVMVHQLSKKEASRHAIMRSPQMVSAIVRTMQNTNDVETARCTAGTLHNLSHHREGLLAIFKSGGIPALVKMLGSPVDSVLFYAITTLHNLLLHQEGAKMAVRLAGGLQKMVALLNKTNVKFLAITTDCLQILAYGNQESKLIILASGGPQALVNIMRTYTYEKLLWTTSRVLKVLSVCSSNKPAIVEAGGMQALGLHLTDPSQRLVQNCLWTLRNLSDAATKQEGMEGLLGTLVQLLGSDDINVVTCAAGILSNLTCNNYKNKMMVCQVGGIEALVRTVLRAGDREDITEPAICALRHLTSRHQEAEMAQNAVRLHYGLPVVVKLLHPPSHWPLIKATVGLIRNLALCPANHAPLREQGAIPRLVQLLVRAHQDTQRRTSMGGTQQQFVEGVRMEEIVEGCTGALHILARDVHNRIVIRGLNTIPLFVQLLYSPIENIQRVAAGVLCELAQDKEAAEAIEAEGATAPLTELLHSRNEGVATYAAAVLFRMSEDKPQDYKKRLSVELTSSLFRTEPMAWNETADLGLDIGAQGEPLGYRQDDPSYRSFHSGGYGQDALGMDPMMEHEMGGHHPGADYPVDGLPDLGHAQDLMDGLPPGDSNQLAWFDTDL"}, "source": "paper PMC5954140", "binders": {"B1": {"name": "Flag-ESRRG (estrogen-related receptor gamma) (protein, UniProt P62508 1-458)", "chain": "MDSVELCLPESFSLHYEEELLCRMSNKDRHIDSSCSSFIKTEPSSPASLTDSVNHHSPGGSSDASGSYSSTMNGHQNGLDSPPLYPSAPILGGSGPVRKLYDDCSSTIVEDPQTKCEYMLNSMPKRLCLVCGDIASGYHYGVASCEACKAFFKRTIQGNIEYSCPATNECEITKRRRKSCQACRFMKCLKVGMLKEGVRLDRVRGGRQKYKRRIDAENSPYLNPQLVQPAKKPYNKIVSHLLVAEPEKIYAMPDPTVPDSDIKALTTLCDLADRELVVIIGWAKHIPGFSTLSLADQMSLLQSAWMEILILGVVYRSLSFEDELVYADDYIMDEDQSKLAGLLDLNNAILQLVKKYKSMKLEKEEFVTLKAIALANSDSMHIEDVEAVQKLQDVLHEALQDYEAGQHMEDPRRAGKMLMTLPLLRQTSTKAVQHFYNIKLEGKVPMHKLFLEMLEAKV"}, "B2": {"name": "GFP-ESRRG (protein, UniProt P62508 1-458)", "chain": "B1 chain"}}, "key": {"[1]": {"target": "LEF1 (human (endogenous in MKN28)) (UniProt Q9UJU2)", "experiment": "co-IP; MKN28 cells; lysates in NP-40 lysis buffer (10% glycerol, 0.5% NP-40, 125 mM NaCl, 1 mM EDTA, 20 mM Tris-Cl pH 8.0); precipitated with the indicated antibodies on Dynabeads Protein G overnight at 4 °C; detected with Flag antibody"}, "[2]": {"target": "TCF4/TCF7L2 (human (endogenous in MKN28)) (UniProt Q9NQB0)", "experiment": "co-IP; MKN28 cells; lysates in NP-40 lysis buffer (10% glycerol, 0.5% NP-40, 125 mM NaCl, 1 mM EDTA, 20 mM Tris-Cl pH 8.0); precipitated with the indicated antibodies on Dynabeads Protein G overnight at 4 °C; detected with Flag antibody"}, "[3]": {"target": "β-catenin (CTNNB1) (human (endogenous in MKN28)) (UniProt P35222)", "experiment": "co-IP; MKN28 cells; lysates in NP-40 lysis buffer (10% glycerol, 0.5% NP-40, 125 mM NaCl, 1 mM EDTA, 20 mM Tris-Cl pH 8.0); precipitated with the indicated antibodies on Dynabeads Protein G overnight at 4 °C; detected with Flag antibody"}, "mCherry-LEF1": {"target": "mCherry-LEF1 (UniProt Q9UJU2)", "experiment": "dual-color fluorescence cross-correlation spectroscopy (FCCS); live cells co-expressing GFP- and mCherry-tagged proteins; measured in the nuclei at 25 °C; relative cross-correlation amplitude; cells co-expressing GFP and mCherry as negative control"}, "mCherry-TCF4": {"target": "mCherry-TCF4 (UniProt Q9NQB0)", "experiment": "dual-color fluorescence cross-correlation spectroscopy (FCCS); live cells co-expressing GFP- and mCherry-tagged proteins; measured in the nuclei at 25 °C; relative cross-correlation amplitude; cells co-expressing GFP and mCherry as negative control"}}, "note": "No constants are given. Whether binding was seen depends on the method and setting. For some assays here: In cells and extracts the contact can be indirect. Some results given as binding are weak or reduced against the parent protein; the word gives no strength. Sequences can lack the tags named with a protein.", "data": [{"binder": "B1", "values": [{"measurement": "binding", "setting": "[1]", "value": "binds"}, {"measurement": "binding", "setting": "[2]", "value": "binds"}, {"measurement": "binding", "setting": "[3]", "value": "no binding"}]}, {"binder": "B2", "values": [{"measurement": "binding", "setting": "mCherry-LEF1", "value": "binds"}, {"measurement": "binding", "setting": "mCherry-TCF4", "value": "binds"}]}]}
